Where a name gives a salt, the structure may show the parent alone. The list shows a part of the results. Most values come without repeats; read them as rough.
Tests used:
OVCAR4 = test: log2 surviving fraction (library drug vs vehicle, or drug + carboplatin vs carboplatin alone; relative to plate median); ovarian cancer lines: OVCAR4 is platinum-sensitive and Ov4Carbo platinum-resistant; higher = more cell survival; conditions: library drug concentration 10 µM, 7 days
Ov4Carbo = test: as above; conditions: library drug concentration 10 µM, 7 days

SMILES | log2 surviving fraction (OVCAR4; carboplatin co-treatment 0 µM) | log2 surviving fraction (OVCAR4; carboplatin co-treatment 5 µM) | log2 surviving fraction (Ov4Carbo; carboplatin co-treatment 0 µM) | log2 surviving fraction (Ov4Carbo; carboplatin co-treatment 5 µM)
O.O.O.O.O=C([O-])CC(O)(CC(=O)[O-])C(=O)[O-].[Li+].[Li+].[Li+] [Lithium Citrate] | -0.173 | 0.612 | -0.0522 | 1.2
C1N2CN3CN1CN(C2)C3 [Methenamine (Mandelamine)] | -0.0965 | 0.177 | -1.41 | -0.262
O=C([O-])c1ccccc1O.[Na+] [Sodium salicylate] | -0.247 | 0.0637 | -0.141 | -0.545
CCCC(=O)[O-].[Na+] [Sodium butyrate] | -0.0284 | 1.19 | 1.29 | -0.257
N[C@@H]1CONC1=O [D-Cycloserine] | 0.0441 | 0.921 | 0.909 | 0.667
CN(C)c1ccc(C(=C2C=CC(=[N+](C)C)C=C2)c2ccc(N(C)C)cc2)cc1 [Crystal violet] | -7.97 | -6.7 | -7.3 | -7.16
CCC(=O)O[C@]1(C(=O)CCl)[C@@H](C)C[C@H]2[C@@H]3CCC4=CC(=O)C=C[C@]4(C)[C@@]3(F)[C@@H](O)C[C@@]21C [Clobetasol propionate] | -1.59 | -1.1 | 0.392 | -1.37
O=c1c(-c2ccc(O)cc2)coc2cc(O)ccc12 [Daidzein] | 0.271 | 0.00788 | 0.196 | 0.0739
Cc1ccnc(NS(=O)(=O)c2ccc(N)cc2)n1 [Sulfamerazine] | 0.105 | 0.447 | -0.4 | -0.0179
c1ccc(C2CN3CCSC3=N2)cc1 (configuration not stated) [Tetramisole HCl] | 0.406 | -0.012 | 0.394 | -0.425
C[C@H](CCC(=O)O)[C@H]1CC[C@H]2[C@@H]3CC[C@@H]4C[C@H](O)CC[C@]4(C)[C@H]3CC[C@]12C [Lithocholic acid] | -0.391 | -0.476 | -0.294 | 0.749
N[C@@H](Cc1cc(I)c(Oc2ccc(O)c(I)c2)c(I)c1)C(=O)O [Liothyronine Sodium] | 0.232 | -0.418 | 0.552 | 0.25
CCOc1ccc2nc(S(N)(=O)=O)sc2c1 [Ethoxzolamide] | 0.91 | 0.993 | 1.94 | 1.06
CC1(C)Cc2c(-c3ccccc3)c(-c3ccc(Cl)cc3)c(CC(=O)O)n2C1 [Licofelone] | -1.5 | -0.69 | -0.126 | 0.267
CC(c1cc2ccccc2s1)N(O)C(N)=O (configuration not stated) [Zileuton] | 0.0923 | -0.458 | -0.0558 | 0.627
COc1cc(NC(C)CCCN)c2ncccc2c1 (configuration not stated) [Primaquine Diphosphate] | 0.103 | 0.728 | 0.0666 | -0.0887
CCN(CC)CCOCCOC(=O)C(CC)(CC)c1ccccc1 [Oxeladin Citrate] | -0.321 | -1.04 | -0.504 | -2.9
C[C@@H]1CN(c2c(F)c(N)c3c(=O)c(C(=O)O)cn(C4CC4)c3c2F)C[C@H](C)N1 [Sparfloxacin] | 0.274 | 0.147 | 0.67 | 0.325
CC[C@@H](CO)NCCN[C@@H](CC)CO [Ethambutol HCl] | -0.378 | -1.14 | 1.19 | 0.594
O=C(O)c1cc(/N=N/c2ccc(O)c(C(=O)O)c2)ccc1O [olsalazine sodium] | 0.172 | 0.0462 | 0.428 | 0.957
CCCN1C[C@H](CSC)C[C@@H]2c3cccc4[nH]cc(c34)C[C@H]21 [Pergolide mesylate] | -0.665 | -0.702 | -0.49 | 0.382
Cc1c(NC(=O)c2cccnc2)c(=O)n(-c2ccccc2)n1C [Nifenazone] | -0.494 | 0.924 | 0.358 | 0.316
C[N+](C)(C)CCCCCC[N+](C)(C)C [Hexamethonium bromide] | 0.424 | 0.156 | 0.0826 | -0.962
CC(C)(C)CC(C)(C)c1ccc(O)c(Cc2ccc(Cl)cc2Cl)c1 [Clofoctol] | -7.75 | -5.56 | -0.32 | -1
Cc1nc(-c2ccc(OCC(C)C)c(C#N)c2)sc1C(=O)O [Febuxostat (Uloric)] | 0.825 | 0.379 | 0.38 | 0.0554
O=C(O)CCc1nc(-c2ccccc2)c(-c2ccccc2)o1 [Oxaprozin] | 1.24 | 1.32 | 0.951 | 1.06
CNC1CCCN(c2c(F)cc3c(=O)c(C(=O)O)cn(C4CC4)c3c2OC)C1 (configuration not stated) [Balofloxacin] | 1.64 | 1.51 | -0.185 | 1.32
O=C(O)Cc1ccccc1Nc1c(Cl)cccc1Cl [Diclofenac] | 0.000587 | -0.197 | 0.308 | 0.0945

Source: the supplement of paper PMC8047034
